Source: patent US7834164B2 (priority 2006, dated 2010)
Not every detail of the peptide structures is certain; ends, links or a residue may be inferred. Bridge positions count the residues as written; N and C are the ends. Peptide text beside a SMILES is read from it.

Experiments:
[1] = system: IL-2 production in human whole blood; type: cell-based; details: read-out: Average IC50 IL-2
[2] = system: IFN-g production in human whole blood; type: cell-based; details: read-out: Average IC50 IFNg

SMILES	IC50 [1] [pM]	IC50 [2] [pM]
CC[C@H](C)[C@@H]1NC(=O)[C@H](CCCCN)NC(=O)[C@@H](NC(=O)[C@H](CCCCN)NC(=O)[C@H](C)NC(=O)[C@H](CC(N)=O)NC(=O)[C@@H](NC(=O)[C@@H](NC(=O)[C@@H](NC(=O)CN)C(C)C)[C@@H](C)CC)[C@@H](C)CC)CSSC[C@@H]2NC(=O)[C@H](CCCCN)NC(=O)CNC(=O)[C@H](Cc3ccccc3)NC(=O)[C@H](CCCNC(=N)N)NC(=O)[C@H](CCSC)NC(=O)CNC(=O)[C@H](C)NC(=O)[C@H](CCCCN)NC(=O)[C@H](CCCCN)NC(=O)[C@@H]3CSSC[C@@H](C(=O)N[C@H](C(=O)N4CCC[C@H]4C(=O)N[C@@H](CCCCN)C(=O)O)[C@@H](C)O)NC(=O)[C@H](Cc4c[nH]cn4)NC(=O)[C@H](CSSC[C@H](NC(=O)[C@H](CCC(N)=O)NC(=O)[C@H](CCCNC(=N)N)NC(=O)[C@H](CO)NC1=O)C(=O)N[C@@H](CC(C)C)C(=O)N[C@@H](CCC(=O)O)C(=O)N1CCC[C@H]1C(=O)N3)NC(=O)[C@H](CCCCN)NC(=O)CNC(=O)[C@H](CC(N)=O)NC(=O)[C@H](CCSC)NC2=O [Ala-6] (H-GVIINAKCKISRQCLEPCKKAGMRFGKCMNGKCHCTPK-OH; disulfide 8-28, 14-33, 18-35)	73.3	80.5
CC[C@H](C)[C@@H]1NC(=O)[C@H](C)NC(=O)[C@@H](NC(=O)[C@H](CCCCN)NC(=O)[C@@H](NC(=O)[C@H](CC(N)=O)NC(=O)[C@@H](NC(=O)[C@@H](NC(=O)[C@@H](NC(=O)CN)C(C)C)[C@@H](C)CC)[C@@H](C)CC)C(C)C)CSSC[C@@H]2NC(=O)[C@H](CCCCN)NC(=O)CNC(=O)[C@H](Cc3ccccc3)NC(=O)[C@H](CCCNC(=N)N)NC(=O)[C@H](CCSC)NC(=O)CNC(=O)[C@H](C)NC(=O)[C@H](CCCCN)NC(=O)[C@H](CCCCN)NC(=O)[C@@H]3CSSC[C@@H](C(=O)N[C@H](C(=O)N4CCC[C@H]4C(=O)N[C@@H](CCCCN)C(=O)O)[C@@H](C)O)NC(=O)[C@H](Cc4c[nH]cn4)NC(=O)[C@H](CSSC[C@H](NC(=O)[C@H](CCC(N)=O)NC(=O)[C@H](CCCNC(=N)N)NC(=O)[C@H](CO)NC1=O)C(=O)N[C@@H](CC(C)C)C(=O)N[C@@H](CCC(=O)O)C(=O)N1CCC[C@H]1C(=O)N3)NC(=O)[C@H](CCCCN)NC(=O)CNC(=O)[C@H](CC(N)=O)NC(=O)[C@H](CCSC)NC2=O [Ala-9] (H-GVIINVKCAISRQCLEPCKKAGMRFGKCMNGKCHCTPK-OH; disulfide 8-28, 14-33, 18-35)	79.6	71.1
CC[C@H](C)[C@H](NC(=O)[C@@H](NC(=O)CN)C(C)C)C(=O)N[C@H](C(=O)N[C@@H](CC(N)=O)C(=O)N[C@H](C(=O)N[C@@H](CCCCN)C(=O)N[C@H]1CSSC[C@@H]2NC(=O)[C@H](CCCCN)NC(=O)CNC(=O)[C@H](Cc3ccccc3)NC(=O)[C@H](CCCNC(=N)N)NC(=O)[C@H](CCSC)NC(=O)CNC(=O)[C@H](C)NC(=O)[C@H](CCCCN)NC(=O)[C@H](CCCCN)NC(=O)[C@@H]3CSSC[C@@H](C(=O)N[C@H](C(=O)N4CCC[C@H]4C(=O)N[C@@H](CCCCN)C(=O)O)[C@@H](C)O)NC(=O)[C@H](Cc4c[nH]cn4)NC(=O)[C@H](CSSC[C@H](NC(=O)[C@H](CCC(N)=O)NC(=O)[C@H](CCCNC(=N)N)NC(=O)[C@H](CO)NC(=O)[C@H](C)NC(=O)[C@H](CCCCN)NC1=O)C(=O)N[C@@H](CC(C)C)C(=O)N[C@@H](CCC(=O)O)C(=O)N1CCC[C@H]1C(=O)N3)NC(=O)[C@H](CCCCN)NC(=O)CNC(=O)[C@H](CC(N)=O)NC(=O)[C@H](CCSC)NC2=O)C(C)C)[C@@H](C)CC [Ala-10] (H-GVIINVKCKASRQCLEPCKKAGMRFGKCMNGKCHCTPK-OH; disulfide 8-28, 14-33, 18-35)	50	29.6
CC[C@H](C)[C@@H]1NC(=O)[C@H](CCCCN)NC(=O)[C@@H](NC(=O)[C@H](CCCCN)NC(=O)[C@@H](NC(=O)[C@H](CC(N)=O)NC(=O)[C@@H](NC(=O)[C@@H](NC(=O)[C@@H](NC(=O)CN)C(C)C)[C@@H](C)CC)[C@@H](C)CC)C(C)C)CSSC[C@@H]2NC(=O)[C@H](CCCCN)NC(=O)CNC(=O)[C@H](Cc3ccccc3)NC(=O)[C@H](CCCNC(=N)N)NC(=O)[C@H](CCSC)NC(=O)CNC(=O)[C@H](C)NC(=O)[C@H](CCCCN)NC(=O)[C@H](CCCCN)NC(=O)[C@@H]3CSSC[C@@H](C(=O)N[C@H](C(=O)N4CCC[C@H]4C(=O)N[C@@H](CCCCN)C(=O)O)[C@@H](C)O)NC(=O)[C@H](Cc4c[nH]cn4)NC(=O)[C@H](CSSC[C@H](NC(=O)[C@H](C)NC(=O)[C@H](CCCNC(=N)N)NC(=O)[C@H](CO)NC1=O)C(=O)N[C@@H](CC(C)C)C(=O)N[C@@H](CCC(=O)O)C(=O)N1CCC[C@H]1C(=O)N3)NC(=O)[C@H](CCCCN)NC(=O)CNC(=O)[C@H](CC(N)=O)NC(=O)[C@H](CCSC)NC2=O [Ala-13] (H-GVIINVKCKISRACLEPCKKAGMRFGKCMNGKCHCTPK-OH; disulfide 8-28, 14-33, 18-35)	148	133
CC[C@H](C)[C@@H]1NC(=O)[C@H](CCCCN)NC(=O)[C@@H](NC(=O)[C@H](CCCCN)NC(=O)[C@@H](NC(=O)[C@H](CC(N)=O)NC(=O)[C@@H](NC(=O)[C@@H](NC(=O)[C@@H](NC(=O)CN)C(C)C)[C@@H](C)CC)[C@@H](C)CC)C(C)C)CSSC[C@@H]2NC(=O)[C@H](CCCCN)NC(=O)CNC(=O)[C@H](Cc3ccccc3)NC(=O)[C@H](CCCNC(=N)N)NC(=O)[C@H](CCSC)NC(=O)CNC(=O)[C@H](C)NC(=O)[C@H](CCCCN)NC(=O)[C@H](CCCCN)NC(=O)[C@@H]3CSSC[C@@H](C(=O)N[C@H](C(=O)N4CCC[C@H]4C(=O)N[C@@H](CCCCN)C(=O)O)[C@@H](C)O)NC(=O)[C@H](Cc4c[nH]cn4)NC(=O)[C@H](CSSC[C@H](NC(=O)[C@H](CCC(N)=O)NC(=O)[C@H](CCCNC(=N)N)NC(=O)[C@H](CO)NC1=O)C(=O)N[C@@H](CC(C)C)C(=O)N[C@@H](CCC(=O)O)C(=O)N[C@@H](C)C(=O)N3)NC(=O)[C@H](CCCCN)NC(=O)CNC(=O)[C@H](CC(N)=O)NC(=O)[C@H](CCSC)NC2=O [Ala-17] (H-GVIINVKCKISRQCLEACKKAGMRFGKCMNGKCHCTPK-OH; disulfide 8-28, 14-33, 18-35)	173	173
CC[C@H](C)[C@@H]1NC(=O)[C@H](CCCCN)NC(=O)[C@@H](NC(=O)[C@H](CCCCN)NC(=O)[C@@H](NC(=O)[C@H](CC(N)=O)NC(=O)[C@@H](NC(=O)[C@@H](NC(=O)[C@@H](NC(=O)CN)C(C)C)[C@@H](C)CC)[C@@H](C)CC)C(C)C)CSSC[C@@H]2NC(=O)[C@H](C)NC(=O)CNC(=O)[C@H](Cc3ccccc3)NC(=O)[C@H](CCCNC(=N)N)NC(=O)[C@H](CCSC)NC(=O)CNC(=O)[C@H](C)NC(=O)[C@H](CCCCN)NC(=O)[C@H](CCCCN)NC(=O)[C@@H]3CSSC[C@@H](C(=O)N[C@H](C(=O)N4CCC[C@H]4C(=O)N[C@@H](CCCCN)C(=O)O)[C@@H](C)O)NC(=O)[C@H](Cc4c[nH]cn4)NC(=O)[C@H](CSSC[C@H](NC(=O)[C@H](CCC(N)=O)NC(=O)[C@H](CCCNC(=N)N)NC(=O)[C@H](CO)NC1=O)C(=O)N[C@@H](CC(C)C)C(=O)N[C@@H](CCC(=O)O)C(=O)N1CCC[C@H]1C(=O)N3)NC(=O)[C@H](CCCCN)NC(=O)CNC(=O)[C@H](CC(N)=O)NC(=O)[C@H](CCSC)NC2=O [Ala-27] (H-GVIINVKCKISRQCLEPCKKAGMRFGACMNGKCHCTPK-OH; disulfide 8-28, 14-33, 18-35)	3450	1580
CC[C@H](C)[C@@H]1NC(=O)[C@H](CCCCN)NC(=O)[C@@H](NC(=O)[C@H](CCCCN)NC(=O)[C@@H](NC(=O)[C@H](CC(N)=O)NC(=O)[C@@H](NC(=O)[C@@H](NC(=O)[C@@H](NC(=O)CN)C(C)C)[C@@H](C)CC)[C@@H](C)CC)C(C)C)CSSC[C@@H]2NC(=O)[C@H](CCCCN)NC(=O)CNC(=O)[C@H](Cc3ccccc3)NC(=O)[C@H](CCCNC(=N)N)NC(=O)[C@H](CCSC)NC(=O)CNC(=O)[C@H](C)NC(=O)[C@H](CCCCN)NC(=O)[C@H](CCCCN)NC(=O)[C@@H]3CSSC[C@@H](C(=O)N[C@H](C(=O)N4CCC[C@H]4C(=O)N[C@@H](CCCCN)C(=O)O)[C@@H](C)O)NC(=O)[C@H](Cc4c[nH]cn4)NC(=O)[C@H](CSSC[C@H](NC(=O)[C@H](CCC(N)=O)NC(=O)[C@H](CCCNC(=N)N)NC(=O)[C@H](CO)NC1=O)C(=O)N[C@@H](CC(C)C)C(=O)N[C@@H](CCC(=O)O)C(=O)N1CCC[C@H]1C(=O)N3)NC(=O)[C@H](CCCCN)NC(=O)CNC(=O)[C@H](CC(N)=O)NC(=O)[C@H](C)NC2=O [Ala-29] (H-GVIINVKCKISRQCLEPCKKAGMRFGKCANGKCHCTPK-OH; disulfide 8-28, 14-33, 18-35)	447	292
CC[C@H](C)[C@@H]1NC(=O)[C@H](CCCCN)NC(=O)[C@@H](NC(=O)[C@H](CCCCN)NC(=O)[C@@H](NC(=O)[C@H](CC(N)=O)NC(=O)[C@@H](NC(=O)[C@@H](NC(=O)[C@@H](NC(=O)CN)C(C)C)[C@@H](C)CC)[C@@H](C)CC)C(C)C)CSSC[C@@H]2NC(=O)[C@H](CCCCN)NC(=O)CNC(=O)[C@H](Cc3ccccc3)NC(=O)[C@H](CCCNC(=N)N)NC(=O)[C@H](CCSC)NC(=O)CNC(=O)[C@H](C)NC(=O)[C@H](CCCCN)NC(=O)[C@H](CCCCN)NC(=O)[C@@H]3CSSC[C@@H](C(=O)N[C@H](C(=O)N4CCC[C@H]4C(=O)N[C@@H](CCCCN)C(=O)O)[C@@H](C)O)NC(=O)[C@H](C)NC(=O)[C@H](CSSC[C@H](NC(=O)[C@H](CCC(N)=O)NC(=O)[C@H](CCCNC(=N)N)NC(=O)[C@H](CO)NC1=O)C(=O)N[C@@H](CC(C)C)C(=O)N[C@@H](CCC(=O)O)C(=O)N1CCC[C@H]1C(=O)N3)NC(=O)[C@H](CCCCN)NC(=O)CNC(=O)[C@H](CC(N)=O)NC(=O)[C@H](CCSC)NC2=O [Ala-34] (H-GVIINVKCKISRQCLEPCKKAGMRFGKCMNGKCACTPK-OH; disulfide 8-28, 14-33, 18-35)	72.5	57.3
